{
  "source": "the supplement of paper PMC4166925",
  "note": "± gives the standard deviation of the averaged measurements. Over roughly 33,000 sequences, “E-score (dimensionless, -0.5 to 0.5)” has its median near -0.049; the highest 2% begin near 0.37. The list shows a part of the results.",
  "data": [
    {"test_system": "T1, PmTbr T-box DNA-binding domain (GST fusion)", "T1 sequence": "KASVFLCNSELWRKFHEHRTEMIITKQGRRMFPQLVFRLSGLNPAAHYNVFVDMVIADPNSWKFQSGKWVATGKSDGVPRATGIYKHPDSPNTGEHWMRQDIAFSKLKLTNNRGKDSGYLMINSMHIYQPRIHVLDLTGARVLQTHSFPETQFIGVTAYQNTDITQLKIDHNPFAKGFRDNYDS", "assay": "PBM E-score of 8-mer (E-score (dimensionless, -0.5 to 0.5)); Tbr is Tbrain of the sea star Patiria miniata (Pm) or the sea urchin Strongylocentrotus purpuratus (Sp); higher = stronger binding preference; most listed sequences are background and not binding sites", "details": "the construct has about 5 more residues each side", "protocol": "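Universal protein-binding microarray (Agilent AMADID 016060, 60-bp probes with a 35-bp variable region) incubated with 200 nM GST-fused Patiria miniata Tbr T-box DNA-binding domain (residues 272-466) in PBS pH 7.5. Scored for every ungapped 8-mer (given with its reverse complement) by the Universal PBM Analysis Suite as E-score (modified Wilcoxon-Mann-Whitney enrichment, range -0.5 to 0.5; >0.45 counts as bound) and Z-score of median probe intensity. Two replicate arrays (datasets 1 and 2).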", "values": [
      {"sequence": "ACGCACCG", "PBM E-score of 8-mer": "-0.0297 ± 0.17"},
      {"sequence": "CGTTGCGA", "PBM E-score of 8-mer": "0.28 ± 0.02"},
      {"sequence": "GATGGATA", "PBM E-score of 8-mer": "-0.142 ± 0.054"},
      {"sequence": "ACCTTACT", "PBM E-score of 8-mer": "0.0445 ± 0.0097"},
      {"sequence": "TAAGGCGA", "PBM E-score of 8-mer": "0.132 ± 0.064"},
      {"sequence": "GTACGTAA", "PBM E-score of 8-mer": "-0.141 ± 0.023"},
      {"sequence": "AACAGAGT", "PBM E-score of 8-mer": "-0.0158 ± 0.027"},
      {"sequence": "AATGCGAA", "PBM E-score of 8-mer": "0.011 ± 0.054"},
      {"sequence": "CCCAAGAA", "PBM E-score of 8-mer": "-0.0513 ± 0.002"},
      {"sequence": "ATAACTCG", "PBM E-score of 8-mer": "-0.163 ± 0.1"},
      {"sequence": "GTTATAAC", "PBM E-score of 8-mer": "0.0936 ± 0.081"},
      {"sequence": "AATCCAAT", "PBM E-score of 8-mer": "-0.0242 ± 0.039"},
      {"sequence": "GCCATAAA", "PBM E-score of 8-mer": "-0.0292 ± 0.012"},
      {"sequence": "GGTAAACC", "PBM E-score of 8-mer": "0.131 ± 0.039"},
      {"sequence": "GTCACGCA", "PBM E-score of 8-mer": "0.257 ± 0.019"},
      {"sequence": "ACCACCGG", "PBM E-score of 8-mer": "-0.05 ± 0.12"},
      {"sequence": "CAGCAAGC", "PBM E-score of 8-mer": "-0.103 ± 0.0015"},
      {"sequence": "ACTCACTC", "PBM E-score of 8-mer": "-0.016 ± 0.059"},
      {"sequence": "CACCACTC", "PBM E-score of 8-mer": "0.183 ± 0.016"},
      {"sequence": "GAGCCCCA", "PBM E-score of 8-mer": "-0.0187 ± 0.036"},
      {"sequence": "AATTGAAC", "PBM E-score of 8-mer": "-0.0777 ± 0.024"},
      {"sequence": "AGCGGCAA", "PBM E-score of 8-mer": "0.0991 ± 0.016"},
      {"sequence": "ACTATAGA", "PBM E-score of 8-mer": "-0.289 ± 0.034"},
      {"sequence": "ACCCCTGG", "PBM E-score of 8-mer": "-0.111 ± 0.013"},
      {"sequence": "CCATACAG", "PBM E-score of 8-mer": "-0.205 ± 0.0027"},
      {"sequence": "AGCGCGCA", "PBM E-score of 8-mer": "0.104 ± 0.053"},
      {"sequence": "AATCCCTC", "PBM E-score of 8-mer": "-0.173 ± 0.1"},
      {"sequence": "CGAGCTTC", "PBM E-score of 8-mer": "-0.0216 ± 0.00046"},
      {"sequence": "AAGTTGAA", "PBM E-score of 8-mer": "-0.328 ± 0.07"},
      {"sequence": "CATTTGCA", "PBM E-score of 8-mer": "0.0315 ± 0.03"},
      {"sequence": "CCATACTC", "PBM E-score of 8-mer": "0.0602 ± 0.026"},
      {"sequence": "AGAACCTA", "PBM E-score of 8-mer": "-0.135 ± 0.064"},
      {"sequence": "ATGTCTCG", "PBM E-score of 8-mer": "-0.153 ± 0.055"},
      {"sequence": "ACCATCTA", "PBM E-score of 8-mer": "-0.112 ± 0.021"},
      {"sequence": "GCCTATGA", "PBM E-score of 8-mer": "-0.192 ± 0.025"},
      {"sequence": "AGTTCAAG", "PBM E-score of 8-mer": "-0.271 ± 0.039"},
      {"sequence": "CAAGATCG", "PBM E-score of 8-mer": "-0.00864 ± 0.1"},
      {"sequence": "CTGTGGAA", "PBM E-score of 8-mer": "-0.0725 ± 0.14"},
      {"sequence": "CTGTAAGC", "PBM E-score of 8-mer": "-0.0165 ± 0.097"},
      {"sequence": "GGTGCATA", "PBM E-score of 8-mer": "0.0156 ± 0.023"},
      {"sequence": "CACTGGGC", "PBM E-score of 8-mer": "-0.267 ± 0.098"},
      {"sequence": "GCTAATCC", "PBM E-score of 8-mer": "-0.0551 ± 0.047"},
      {"sequence": "ATGTAATA", "PBM E-score of 8-mer": "-0.08 ± 0.0095"},
      {"sequence": "TTGAGAAA", "PBM E-score of 8-mer": "0.0227 ± 0.14"},
      {"sequence": "GCGGACCA", "PBM E-score of 8-mer": "-0.117 ± 0.039"},
      {"sequence": "CTTGAACA", "PBM E-score of 8-mer": "-0.172 ± 0.0064"},
      {"sequence": "CAAGAGCC", "PBM E-score of 8-mer": "-0.048 ± 0.0027"},
      {"sequence": "AAGCCGGA", "PBM E-score of 8-mer": "-0.273 ± 0.086"},
      {"sequence": "AACGTCGC", "PBM E-score of 8-mer": "0.0909 ± 0.015"},
      {"sequence": "AATCCGGT", "PBM E-score of 8-mer": "-0.0786 ± 0.098"},
      {"sequence": "CAGGGGAC", "PBM E-score of 8-mer": "-0.126 ± 0.043"},
      {"sequence": "CGATGGCG", "PBM E-score of 8-mer": "0.168 ± 0.063"},
      {"sequence": "TATCTGCA", "PBM E-score of 8-mer": "-0.0137 ± 0.015"},
      {"sequence": "ACCTCCCG", "PBM E-score of 8-mer": "0.0185 ± 0.096"},
      {"sequence": "AAATTCTT", "PBM E-score of 8-mer": "-0.155 ± 0.029"},
      {"sequence": "TACAAGGA", "PBM E-score of 8-mer": "-0.184 ± 0.061"},
      {"sequence": "GGCTCCTA", "PBM E-score of 8-mer": "-0.209 ± 0.029"},
      {"sequence": "CTTCACCC", "PBM E-score of 8-mer": "0.0387 ± 0.019"},
      {"sequence": "GTTACGAA", "PBM E-score of 8-mer": "0.0491 ± 0.02"},
      {"sequence": "ACGTGCAA", "PBM E-score of 8-mer": "0.1917 ± 0.00088"},
      {"sequence": "GAAACCAC", "PBM E-score of 8-mer": "-0.112 ± 0.0064"},
      {"sequence": "CAGCCCGC", "PBM E-score of 8-mer": "-0.145 ± 0.03"},
      {"sequence": "CAAACACG", "PBM E-score of 8-mer": "0.221 ± 0.04"},
      {"sequence": "GACTAGAC", "PBM E-score of 8-mer": "-0.0973 ± 0.043"},
      {"sequence": "TGCGCTAA", "PBM E-score of 8-mer": "0.247 ± 0.036"},
      {"sequence": "GCCGTTCC", "PBM E-score of 8-mer": "-0.174 ± 0.035"},
      {"sequence": "ATTGGCAG", "PBM E-score of 8-mer": "0.0761 ± 0.012"},
      {"sequence": "TATCTTGA", "PBM E-score of 8-mer": "-0.215 ± 0.044"},
      {"sequence": "CAGCAAAG", "PBM E-score of 8-mer": "-0.123 ± 0.027"},
      {"sequence": "ACGCTGCC", "PBM E-score of 8-mer": "0.103 ± 0.022"},
      {"sequence": "AGTCTCTC", "PBM E-score of 8-mer": "-0.152 ± 0.011"},
      {"sequence": "GTCTCGAA", "PBM E-score of 8-mer": "-0.1315 ± 0.00068"},
      {"sequence": "AAACAATA", "PBM E-score of 8-mer": "-0.0242 ± 0.037"},
      {"sequence": "CCTAAGCC", "PBM E-score of 8-mer": "-0.113 ± 0.0019"},
      {"sequence": "CAAACCAG", "PBM E-score of 8-mer": "-0.122 ± 0.032"},
      {"sequence": "CCCGAACC", "PBM E-score of 8-mer": "-0.119 ± 0.062"},
      {"sequence": "GGTAACAC", "PBM E-score of 8-mer": "0.43 ± 0.0044"},
      {"sequence": "CCGGTGCG", "PBM E-score of 8-mer": "0.101 ± 0.07"},
      {"sequence": "CAGTGGTC", "PBM E-score of 8-mer": "-0.208 ± 0.12"},
      {"sequence": "GGTCCTGA", "PBM E-score of 8-mer": "-0.164 ± 0.0018"},
      {"sequence": "CCTTATAC", "PBM E-score of 8-mer": "-0.09 ± 0.078"},
      {"sequence": "CAGTCACG", "PBM E-score of 8-mer": "0.143 ± 0.0015"},
      {"sequence": "CCTGGTAG", "PBM E-score of 8-mer": "-0.213 ± 0.03"},
      {"sequence": "CACACGCA", "PBM E-score of 8-mer": "0.201 ± 0.052"},
      {"sequence": "CACACCGG", "PBM E-score of 8-mer": "0.135 ± 0.057"},
      {"sequence": "CTGCTGGC", "PBM E-score of 8-mer": "0.000885 ± 0.013"},
      {"sequence": "AAATATTT", "PBM E-score of 8-mer": "-0.0394 ± 0.0084"},
      {"sequence": "ACCGTCCG", "PBM E-score of 8-mer": "-0.0852 ± 0.062"},
      {"sequence": "CCACTCTA", "PBM E-score of 8-mer": "-0.0635 ± 0.066"},
      {"sequence": "AATTTTCA", "PBM E-score of 8-mer": "0.0506 ± 0.061"},
      {"sequence": "GACACTCA", "PBM E-score of 8-mer": "0.28 ± 0.0035"},
      {"sequence": "ACAGCTTG", "PBM E-score of 8-mer": "0.152 ± 0.05"},
      {"sequence": "ACTCCACT", "PBM E-score of 8-mer": "-0.128 ± 0.036"},
      {"sequence": "CTGCCAGA", "PBM E-score of 8-mer": "-0.131 ± 0.0021"}
    ]}
  ]
}
